Results published in PubChem BioAssay AID504333 (National Center for Advancing Translational Sciences (NCATS), 2011).
The campaign covered roughly 360,000 compounds. About 16,000 (4.4%) were called active. Inconclusive means that the source gave no clear call. Such entries were picked first, then a sample of the others. Calls follow the shape of the dose curve; as a rule, active = well fitted inhibition curve with a large enough effect; inconclusive = small, poorly fitted or top-dose-only effect; inactive = no such curve, though single readings can be large or run the other way. Potencies beside an inconclusive call are fits to weak or partial responses and may not hold up.

molecular target: Bromodomain adjacent to zinc finger domain protein 2B (Homo sapiens) (UniProt Q9UIF8); assay: qHTS Assay for Inhibitors of BAZ2B; details: AlphaScreen BAZ2B-H3K14Ac peptide displacement; series mostly up to 114 µM; also: nearly all actives have a fitted effect of over 60% in size
UniProt Q9UIF8, sequence (Q9UIF8 whole entry, looked up, the tested form may be a part): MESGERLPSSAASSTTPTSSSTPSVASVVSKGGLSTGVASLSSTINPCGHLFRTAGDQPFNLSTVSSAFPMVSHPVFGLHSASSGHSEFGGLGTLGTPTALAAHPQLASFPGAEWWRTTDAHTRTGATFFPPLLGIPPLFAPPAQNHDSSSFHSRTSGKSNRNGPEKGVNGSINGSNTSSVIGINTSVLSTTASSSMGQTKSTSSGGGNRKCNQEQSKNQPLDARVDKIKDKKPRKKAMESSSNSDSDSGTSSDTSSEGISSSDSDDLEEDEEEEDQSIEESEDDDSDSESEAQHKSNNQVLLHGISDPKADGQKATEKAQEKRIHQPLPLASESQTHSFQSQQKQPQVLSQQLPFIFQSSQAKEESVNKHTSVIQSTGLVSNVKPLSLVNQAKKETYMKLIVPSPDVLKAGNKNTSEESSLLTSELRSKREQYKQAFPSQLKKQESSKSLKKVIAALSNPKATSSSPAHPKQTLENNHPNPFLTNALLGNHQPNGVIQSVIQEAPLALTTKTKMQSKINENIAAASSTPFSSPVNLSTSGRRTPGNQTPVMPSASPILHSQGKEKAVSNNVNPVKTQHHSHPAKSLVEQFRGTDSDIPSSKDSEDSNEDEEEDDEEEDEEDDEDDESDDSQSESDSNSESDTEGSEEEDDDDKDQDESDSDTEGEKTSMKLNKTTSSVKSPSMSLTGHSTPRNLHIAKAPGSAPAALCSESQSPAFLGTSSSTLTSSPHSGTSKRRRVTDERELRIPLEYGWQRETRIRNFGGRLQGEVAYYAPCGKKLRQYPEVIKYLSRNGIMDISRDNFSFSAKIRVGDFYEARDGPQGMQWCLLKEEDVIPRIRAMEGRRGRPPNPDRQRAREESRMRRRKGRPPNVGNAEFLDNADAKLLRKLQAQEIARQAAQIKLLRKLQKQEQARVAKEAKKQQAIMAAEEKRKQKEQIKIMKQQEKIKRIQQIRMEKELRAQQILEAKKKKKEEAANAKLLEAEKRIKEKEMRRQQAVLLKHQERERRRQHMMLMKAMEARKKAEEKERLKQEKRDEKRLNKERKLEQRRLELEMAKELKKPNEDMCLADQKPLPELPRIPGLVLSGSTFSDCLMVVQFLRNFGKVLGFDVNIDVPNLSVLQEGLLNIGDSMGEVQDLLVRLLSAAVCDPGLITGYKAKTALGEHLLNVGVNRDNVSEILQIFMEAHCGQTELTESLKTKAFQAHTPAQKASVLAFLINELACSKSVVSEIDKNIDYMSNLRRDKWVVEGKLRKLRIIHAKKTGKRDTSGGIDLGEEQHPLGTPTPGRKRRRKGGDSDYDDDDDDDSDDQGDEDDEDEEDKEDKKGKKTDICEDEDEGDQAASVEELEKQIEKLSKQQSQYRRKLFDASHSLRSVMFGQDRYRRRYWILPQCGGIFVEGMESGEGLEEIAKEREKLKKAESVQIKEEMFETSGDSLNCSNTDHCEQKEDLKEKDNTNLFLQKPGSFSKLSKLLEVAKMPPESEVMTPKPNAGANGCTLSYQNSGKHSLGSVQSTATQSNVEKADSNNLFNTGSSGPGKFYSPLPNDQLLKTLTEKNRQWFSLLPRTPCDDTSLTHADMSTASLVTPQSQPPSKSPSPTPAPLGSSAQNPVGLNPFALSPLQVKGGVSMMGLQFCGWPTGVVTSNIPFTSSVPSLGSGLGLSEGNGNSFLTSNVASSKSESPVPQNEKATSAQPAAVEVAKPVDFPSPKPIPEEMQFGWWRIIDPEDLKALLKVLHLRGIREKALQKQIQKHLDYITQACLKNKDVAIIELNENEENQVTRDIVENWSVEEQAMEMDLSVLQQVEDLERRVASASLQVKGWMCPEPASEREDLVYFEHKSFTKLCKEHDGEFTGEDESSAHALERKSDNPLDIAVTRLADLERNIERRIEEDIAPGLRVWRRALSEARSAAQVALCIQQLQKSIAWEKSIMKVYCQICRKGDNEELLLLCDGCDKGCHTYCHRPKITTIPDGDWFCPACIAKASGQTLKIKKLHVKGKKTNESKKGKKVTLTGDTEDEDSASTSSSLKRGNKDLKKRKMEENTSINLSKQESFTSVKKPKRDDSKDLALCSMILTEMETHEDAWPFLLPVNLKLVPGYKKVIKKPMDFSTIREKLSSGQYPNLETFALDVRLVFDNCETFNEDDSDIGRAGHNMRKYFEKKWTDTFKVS
Summary of the method: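 In this displacement format the biotinylated H3(5-23) peptide acetylated at Lys14 serves as ligand at 50 nM, with BAZ2B at 50 nM in PBS pH 7.4 containing 0.01% Tween-20. Donor and acceptor beads are 10 ug/mL final.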
Potency is read from the fitted curve at half-maximal effect; tags tell the direction and shape of the fitted curve.

Structure (SMILES)	Potency
COc1cccc(OC)c1C(=O)NC(=S)Nc1ccc(S(=O)(=O)Nc2nccs2)cc1	inconclusive: 56.2 µM [inhibitor, partial curve]
CCCC(C)C(=O)Nc1nc(C)c(-c2csc(Nc3cc(OC)ccc3OC)n2)s1 (configuration not stated)	inconclusive: 50.1 µM [inhibitor, partial curve]
Cc1cccc2nc(COc3ccc(-c4ccccc4)cc3)cn12	inconclusive: 39.8 µM [inhibitor, partial curve]
CNCCCNC(=O)c1ccc(/C=N/O)nc1	active: 22.4 µM
CC1=C(C(=O)Nc2ccccc2)C(c2ccc(O)cc2)n2nc(SCc3ccccc3)nc2N1 (configuration not stated)	inconclusive: 89.1 µM [inhibitor, single point]
CCOc1ccccc1NC(=O)N1CCC2(CC1)Oc1ccccc1C(=O)N2Cc1ccccc1F	inactive
O=C(O)c1cccc(C(=O)O)c1Br	inconclusive: 70.8 µM [inhibitor, single point]
Cc1ccc(-n2nnnc2SCC(=O)Nc2ccc(N3CCN(C)CC3)cc2)c(C)c1	inconclusive: 50.1 µM [inhibitor, partial curve]
FC(F)(F)c1cnc(-c2cnc(-c3ccccn3)nc2)c(Cl)c1	inconclusive: 89.1 µM [inhibitor, single point]
COc1ccc(C(=O)NNc2ccccc2)cc1OC	inconclusive: 89.1 µM [inhibitor, single point]
CCCCOC(=O)C(C#N)c1nc2ccccc2nc1N1CCOCC1 (configuration not stated)	inconclusive: 79.4 µM [inhibitor, single point]
O=c1c(Cl)c(N/N=C/c2ccc(Br)cc2)cnn1-c1ccccc1	inconclusive: 89.1 µM [inhibitor, single point]
CN(C)c1oc(-c2ccccc2Cl)nc1P(=O)(c1ccccc1)c1ccccc1	inconclusive: 70.8 µM [inhibitor, single point]
O=C(N/N=C/c1ccccc1O)c1cc(=O)[nH]c2ccccc12	active: 50.1 µM
CCOC(=O)N1CCN(C(=O)c2ccc3c(c2)N(Cc2ccc(C)cc2)CCS3)CC1	inconclusive: 50.1 µM [inhibitor, partial curve]
CCCCC(=O)NNC(=S)NC(=O)c1ccc(C)cc1	inactive
CC(C)(C)OC(=O)N1CCC(c2c(C(=O)Nc3ccc4c(c3)OCO4)cnn2-c2ccccc2)CC1	inconclusive: 70.8 µM [inhibitor, partial curve]
COc1ccccc1/C=C/CN1CC(C)OC(C)C1 (configuration not stated)	active: 44.7 µM
O=C(NNC(=S)NC1CCCCC1)c1ccc(Cl)s1	inconclusive: 79.4 µM [inhibitor, single point]
O=C1OCC2OC(O)C(O)C(O)C2OC(=O)c2cc(O)c(O)c(O)c2-c2c(O)c(O)c3oc(=O)c4c(c(O)c(O)c5oc(=O)c2c3c54)-c2c1cc(O)c(O)c2O (configuration not stated)	active: 0.708 µM
O=C(Nc1ccc([N+](=O)[O-])cc1)N1CCN(C(=O)C2CCCO2)CC1 (configuration not stated)	inactive
CC1=Nc2cc([N+](=O)[O-])ccc2NC(C)(C)C1	inconclusive: 44.7 µM [inhibitor, partial curve]
Cc1sc2ncnc(Oc3ccc(-n4ccnc4)cc3)c2c1C	inconclusive: 89.1 µM [inhibitor, single point]
O=C(Nc1ccc(Cn2ccnc2)cc1)c1cccc(C(F)(F)F)c1	inconclusive: 56.2 µM [inhibitor, partial curve, poor fit]

Structure (SMILES)	Potency
Cc1cs/c(=N\N=C2CCCCC2)n1Cc1ccco1	active: 44.7 µM
CCCn1c(SCC(=O)NCC(=O)Nc2ccc(F)c(F)c2F)nc2ccccc2c1=O	inactive
Cc1ccc(S(=O)(=O)c2nc(-c3cccs3)oc2NCc2cccnc2)cc1	inconclusive: 50.1 µM [inhibitor, partial curve]
S=c1[nH]c(-c2ccccc2)cn1/N=C/c1ccccc1Br	inconclusive: 10 µM [inhibitor, full curve, poor fit]
O=c1[nH]c(SCc2c(F)cccc2Cl)nc2c1CCCC2	inconclusive: 31.6 µM [inhibitor, single point]
COc1ccc(C)cc1NC(=O)C1CCCN1C(=O)OCc1ccccc1 (configuration not stated)	inactive
COC(=O)C1=C(C)N(Cc2ccccc2)C(=NCC(C)C)N[C@H]1c1ccc(Br)cc1	inconclusive: 35.5 µM [inhibitor, partial curve]
COc1ccc(NC(=O)c2cc3c(C)nn(-c4ccccc4)c3s2)c(OC)c1	inactive
CCOc1cc(S(=O)(=O)NCCc2c(C)[nH]c3ccc(C)cc23)ccc1Br	inconclusive: 35.5 µM [inhibitor, partial curve]
CCc1nnc(NC(=O)c2sc3nc4c(cc3c2N)CCCCC4)s1	inactive
CC1CCCC(C)N1C(=O)CSc1ncccn1 (configuration not stated)	inactive
Cc1ccc(C(=O)NNc2c3ccccc3nc3ccccc23)cc1	inconclusive: 50.1 µM [inhibitor, partial curve]
O=c1cc(OCc2ccccc2)cc[nH]1	active: 2.82 µM
CC(=O)c1ccc(N2CCN(c3ccc4cc(S(=O)(=O)N5CCC(C)CC5)ccc4n3)CC2)cc1	inconclusive: 4.47 µM [inhibitor, full curve]
Cc1ccc(OCCn2ccnc2)c([N+](=O)[O-])c1	inconclusive: 89.1 µM [inhibitor, single point]
Cc1ccc2c(c1)nnn2C1CCN(S(=O)(=O)c2ccc(C(=O)N3C(C)CCCC3C)cc2)CC1 (configuration not stated)	inconclusive: 89.1 µM [inhibitor, single point]
C[C@H](NC(=O)OC(C)(C)C)c1nnc(SCC(=O)Nc2cccc(Cl)c2)o1	inconclusive: 79.4 µM [inhibitor, single point]
Cc1ccc(C)c(NS(=O)(=O)c2cc(C(=O)NCc3ccco3)ccc2C)c1	inconclusive: 79.4 µM [inhibitor, single point]
N#Cc1c(NC(=O)c2ccc([N+](=O)[O-])o2)sc2c1CCC2	active: 39.8 µM
O=C(CNCc1ccccc1Cl)Nc1ccc(C(=O)N2CCCCC2)cc1	active: 22.4 µM
CCN(Cc1ccccc1)c1ccc(/C=N/N=C(N)N)cc1	inconclusive: 28.2 µM [inhibitor, partial curve]
O=C(N/N=C\c1cccnc1)c1cc(-c2ccc(Cl)s2)[nH]n1	active: 50.1 µM
COCCn1nnnc1C(c1ccccc1)N1CCN(Cc2ccc3c(c2)OCO3)CC1 (configuration not stated)	inconclusive: 89.1 µM [inhibitor, single point]
Cc1ccccc1CNC(=O)C(=O)NCC(c1cccs1)S(=O)(=O)c1cccs1 (configuration not stated)	inactive

Structure (SMILES)	Potency
CCCCNc1cc(C)nc(NCc2ccccc2)n1	inactive
Cc1cccc2sc(N(CCN(C)C)C(=O)/C=C/c3cccs3)nc12	inactive
O=C(O)c1cccc(N2C(=O)c3ccc4c5c(ccc(c35)C2=O)C(=O)N(c2cccc(C(=O)O)c2)C4=O)c1	inconclusive: 89.1 µM [inhibitor, single point]
CC(C)Cn1c(-c2ccco2)csc1=Nc1cccnc1	active: 31.6 µM
S=c1[nH]nc(Cc2ccc(Br)cc2)n1/N=C/c1ccc(Cl)cc1	inactive
CC(=O)Nc1nonc1-c1nnc(SCc2ccccc2)n1C	inactive
CCc1nn2cc(C(=O)c3ccccc3O)cnc2c1-c1ccc(F)cc1	inconclusive: 44.7 µM [inhibitor, partial curve]
COc1ccccc1NC(=O)C(=O)NCC(c1cccnc1)N1CCc2ccccc2C1 (configuration not stated)	inconclusive: 2.82 µM [inhibitor, full curve]
Cc1ccc(OCc2nc(-c3ccccn3)n[nH]2)cc1	active: 3.98 µM
CCCCN(CC)C(=O)CCCn1c(=O)c2cccn2c2ccccc21	inconclusive: 89.1 µM [inhibitor, single point]
O=C(O)Cc1csc(-c2ccccc2)n1	inconclusive: 35.5 µM [inhibitor, partial curve, poor fit]
CC(=O)c1cccc(NC(=O)Nc2cc3sccc3n2C)c1	inconclusive: 89.1 µM [inhibitor, single point]
CC1CCN(C(=O)CCCOc2cc(=O)n(C)c3ccccc23)CC1	inconclusive: 89.1 µM [inhibitor, single point]
CC1(C)c2ccccc2N2CCC(=O)NC21/C=C/c1ccco1 (configuration not stated)	inconclusive: 70.8 µM [inhibitor, single point]
CCCCOc1cccc(C(=O)NC(=S)Nc2ccc(Cl)c(C(=O)O)c2)c1	inconclusive: 31.6 µM [inhibitor, full curve, poor fit]
Cc1nn(-c2ccccc2)c(Cl)c1C(=O)NCc1cccs1	inconclusive: 56.2 µM [inhibitor, partial curve]
COc1ccc(-c2nc(S(=O)(=O)c3ccc(C)cc3)c(N3CCCCC3)o2)cc1	inconclusive: 79.4 µM [inhibitor, single point]
NS(=O)(=O)c1ccccc1	inactive
CCc1ccc(CN2CCN(S(=O)(=O)Cc3ccccc3)CC2)cc1	active: 17.8 µM
CCOC(=O)c1c(N)sc(C(O)(C(F)(F)F)C(F)(F)F)c1-c1ccc(F)cc1	inconclusive: 89.1 µM [inhibitor, single point]
CCNc1nc(NCC)nc(N(C#N)CCOc2ccccc2)n1	inactive
CC1=C(C(=O)OC(C)C)C(c2ccc(Cl)cc2)n2c(s/c(=C\c3ccc(OCC(=O)O)cc3)c2=O)=N1 (configuration not stated)	active: 44.7 µM
Nc1cc2nc[nH]c2cc1N	active: 28.2 µM
COc1ccccc1N1CCN(c2ncnc3c2c(-c2ccccc2)cn3-c2cccc(C)c2)CC1	inconclusive: 15.8 µM [inhibitor, partial curve]
